The chains are these.
T1: UNK ZnF1-3 (human, UniProt Q9C0B0 31-174)
T1 sequence: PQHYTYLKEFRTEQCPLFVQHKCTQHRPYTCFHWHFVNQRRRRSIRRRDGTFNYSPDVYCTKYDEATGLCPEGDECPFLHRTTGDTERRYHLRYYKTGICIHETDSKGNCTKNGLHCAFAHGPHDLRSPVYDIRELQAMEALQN

B1: 13644904_13657380_983_CDS_ENSG00000010017_ENST00000011619|human|control|control (ssRNA)
RNA: GGGAGUUCUACAGUCCGACGAUCAUUGGCAUCGACCACUUCUCCUGGUGUUUGAAGCCCCACAGUAGGAUACAAAUUUGGCGGUAGGUCAGUGAAAGCAAUACCUAAACUAUGUCCAUUCUUGGUGUAAAAGCAGGUAUUGUUCAACAGAGGAUUGAGCAUCA
B2: chr3:14508043:14508044:+_ENSG00000131389_ENST00000360861|hu_mus|FALSE|FALSE (ssRNA)
RNA: GGGAGUUCUACAGUCCGACGAUCAGCACCUGGCAGGGUCAGUCCACGGACCAGCAGCACCAGAAGCAUGGCAAACGGGAAAGUAGCGGUGAAGUAGACAACCUUGCCUGUGGAUCGAACACCCUUCCAGAUGCAGAAAAAACACAACAGAGGAUUGAGCAUCA
B3: chr22:38884116:38884117:-_ENSG00000100201_ENST00000396821|hu_hu|motif|central (ssRNA)
RNA: GGGAGUUCUACAGUCCGACGAUCAUAAUCCUCUGAGCUGUUUGGAUAGUCAUAGUUGAUCACAAACUUGACAUCUUCCACAUCGGGCCCACGGGAGGCUACAUCUGUAGCAAUAAGGAUGGGUGCCUUUCCAGAACGGAACUCCAACAGAGGAUUGAGCAUCA
B4: chr6:86238017:86238018:-_ENSG00000135317_ENST00000369627|hu_hu|FALSE|FALSE (ssRNA)
RNA: GGGAGUUCUACAGUCCGACGAUCUGGAUGCUGCAGAAGUUUCUGUAGAUAUUCUUGGAACUCUUCCCUCUUUGACUUUAAGAAUUCAUAAUUUUUGGGGCCAAUGAUCCUCUUAGAAGGAAGCUGGGCAUCAGGAAAUGCACCCAACAGAGGAUUGAGCAUCA
B5: chr1:39494564:39494565:+_ENSG00000168653_ENST00000372967|hu_hu|hu_hu_hu_mus_True|38_108 (ssRNA)
RNA: GGGAGUUCUACAGUCCGACGAUCAUGUGCACGUCUCAUCGUUUUGUACCGAAGCAAGCACUCUUCGAAGUCAUCGAACUCUAUCUUGCACUCCUUUUCUGCCCGAGUCCCACCGAUCCCGUGUGCACACUCUAUCCACUCUUUCAACAGAGGAUUGAGCAUCA
B6: chr5:71516810:71516811:-_ENSG00000113048_ENST00000457646|hu_mus|FALSE|FALSE (ssRNA)
RNA: GGGAGUUCUACAGUCCGACGAUCCGCACUCAGCGCCUGGUACUCUUGCUUGGCCUUCUCCCUCUGUUCCUGCUCCCUCUGGAUCAACUGCACCCGCUCCAGGUGCCACUCACGGAGUUUCUGCUCGUAGGUGGCCAGGUCCUCCAACAGAGGAUUGAGCAUCA
B7: chr22:22143041:22143042:-_ENSG00000100030_ENST00000215832|hu_hu|FALSE|FALSE (ssRNA)
RNA: GGGAGUUCUACAGUCCGACGAUCAAUGUGGUUCAGCUGGUCAAGAUAAUGCUUCCCUGGAAAGAUGGGCCUGUUAGAAAGCAUUUCUGCCAGAAUGCAGCCUACAGACCAAAUAUCAAUGGACUUGGUGUAGCCCUUGGAAUUCAACAGAGGAUUGAGCAUCA
B8: chr3:179287964:179287965:+_ENSG00000136518_ENST00000429709|hu_hu|hu_hu_hu_mus_True|48_78 (ssRNA)
RNA: GGGAGUUCUACAGUCCGACGAUCCUUGAGUGGUGAGAUGGCCUCCAUGUUCUCCCUCGGAACACGCAGGGCAUUGGUGUCUAUGUAGUAGGUGGGACCGCCCUGCUUGCCUUUGUCACCAUCAAUCUCCAUCAUUGUACUUCCCAACAGAGGAUUGAGCAUCA
B9: chr6:52679276:52679277:+_ENSMUSG00000004535_ENSMUST00000080723|mus_mus|FALSE|FALSE (ssRNA)
RNA: GGGAGUUCUACAGUCCGACGAUCGUAACAGAACUGAUAAAAUUCUCCAUCAUCAUUUGGAAGGUAAUAUCCUUGAAAUGCUAGUACACAAUUGACUGUUGAUCCUUCCACAUAAUGUUCAGGCAUAGGAGACCAUAAAAAUGUCAACAGAGGAUUGAGCAUCA
B10: 52698872_52703203_226_CDS_ENSG00000157077_ENST00000287727|human|control|control (ssRNA)
RNA: GGGAGUUCUACAGUCCGACGAUCCUUAUUCCACUUUGUAUCCAAUAAAGUAGAAGAAACUGUUUCAUCUUCGUUUUGUUCAAAUUCAUCUAACACCUUGUCCAGGUUGUAAGCUUCUGCUUGGAAGUAAUUCUCCAUCGGUGACAACAGAGGAUUGAGCAUCA
B11: chr19:26705166:26705167:+_ENSMUSG00000024921_ENSMUST00000025862|mus_hu|FALSE|FALSE (ssRNA)
RNA: GGGAGUUCUACAGUCCGACGAUCUCCAGACAUAGGGCUGGAGACGUGCUCUGGGGCUCCUAAUGGAGAUGGGUGUGGUGACAUAUAACCUUGGCUGUGUUGAUCCAUUGGACUCUGGGGAGGGCCCAUGCCUGGGUGAGGUGGCAACAGAGGAUUGAGCAUCA
B12: chrX:101157612:101157613:-_ENSMUSG00000056537_ENSMUST00000070705|mus_hu|motif|central (ssRNA)
RNA: GGGAGUUCUACAGUCCGACGAUCUAUCAGUAACAGUGAUGCUACCAAUUUAACUGGUACGGAAAUCAGAUUUUUAGGUCCGGUAACGUGGCUUUUAAAAUAUUUCCUUUUAUUCUGGAACAAAAACUGGAGAAAGGACAAUGACAACAGAGGAUUGAGCAUCA
B13: chrX:71549762:71549763:+_ENSMUSG00000019087_ENSMUST00000019231|mus_mus|mus_mus_mus_hu_False|38_108 (ssRNA)
RNA: GGGAGUUCUACAGUCCGACGAUCAAAGUGUACCACUUCUUAUUGUUAGCACAACAUCACCAGAAAACGAUAACGACAGCCAAGCAGGACAGACAGUCAAGUAGUCUUUCCACACUCCCAAACUCAGGGAGCCCUAUAACCUUACAACAGAGGAUUGAGCAUCA
B14: chr2:32339754:32339755:+_ENSG00000021574_ENST00000315285|hu_hu|FALSE|FALSE (ssRNA)
RNA: GGGAGUUCUACAGUCCGACGAUCGCCUGAAAGGCCUGCAGAUCCAGUUUUCAUAACUGUUUUUGAACGAGGCAGUGAAUUACUAGUGUGUGUUAAGGGGUCUUUUCUUUUUGGAACAGCUCCACUUUCUGACUGGAGAUGUCCCAACAGAGGAUUGAGCAUCA
B15: 133316617_133326729_392_3pUTR_ENSG00000213585_ENST00000395044|human|control|control (ssRNA)
RNA: GGGAGUUCUACAGUCCGACGAUCUACCCUGUCUUGAUUUUAGCAUUUUUUUUCCCAGUGUUAGGUGAGAAGGAUGAAUCGAAGGUCAGCUUCAGUCCACGUGCAAGCUGAUCUUCCACAGUAAUCUCGGUGCCUAGUGUAUUGCAACAGAGGAUUGAGCAUCA
B16: 31863354_31864446_800_CDS_ENSG00000129493_ENST00000543095|human|control|control (ssRNA)
RNA: GGGAGUUCUACAGUCCGACGAUCCUUAAAACACAGUGUGGCCACACUGUCCAGGUCCGUACUCCACAUAAAGAUGGCUUCAUUCUGAAGUUCAAGGAGACACUUUGCAGCAGCACAACGAACAGCCAUGGAUCUAUCUGUCAACAACAGAGGAUUGAGCAUCA
B17: chr9:113828744:113828745:+_ENSMUSG00000033392_ENSMUST00000111838|mus_hu|motif|central (ssRNA)
RNA: GGGAGUUCUACAGUCCGACGAUCAAGUAAUGUUAUGUACAGUUUUAUUGCCAGUAUAUGCACAACAGUAAGCAUAGAACGGUAAAUACACAAUGUAAUUAACAGUAGAAAACAAAAUUGUUACAGGUAGAGGGAGAGGAUAUACAACAGAGGAUUGAGCAUCA
B18: chr16:94664741:94664742:+_ENSMUSG00000040785_ENSMUST00000117648|mus_hu|mus_mus_mus_hu_False|1_58 (ssRNA)
RNA: GGGAGUUCUACAGUCCGACGAUCUGGUACUGAUCUUGGUAGCUGAUAUUCAGGAGAAAGGCUGGCCAAGGGUGUAUAAAUGCUAGUGUACUGGGGCAAACCUGGUAACACGUUUAUGUAUGCUGGCGGUGUCUGGGUGCCAAACAACAGAGGAUUGAGCAUCA
B19: chr1:244855233:244855234:+_ENSG00000121644_ENST00000302550|hu_mus|hu_hu_hu_mus_True|58_108 (ssRNA)
RNA: GGGAGUUCUACAGUCCGACGAUCCAUUAAAUGAUAAGCGUUGCCCUUAUACUCUUUCCCCAGUUCUUCUACAAUUUUUUCUAUAUCAUCUUCUAGAAAGUCCGUACUUCCUAGAACAACAGCUUCUUUAAAUUUAAAUGUUUCCAACAGAGGAUUGAGCAUCA
B20: chr10:5944071:5944072:+_ENSMUSG00000019763_ENSMUST00000042251|mus_mus|motif|central (ssRNA)
RNA: GGGAGUUCUACAGUCCGACGAUCUCCCCAGCAUCUCUGCAGAGAGCUGGAAAGAAAGGCCACACACUCGCCUUGGCAGUACGGGCAAGCACAGCAUCAGCAAGAUGUCACUGAAUGUGUAUUCUCUGGUGUAGUCGGCCAAGGCAACAGAGGAUUGAGCAUCA
B21: chr12:85018817:85018818:+_ENSMUSG00000010608_ENSMUST00000048155|mus_hu|FALSE|FALSE (ssRNA)
RNA: GGGAGUUCUACAGUCCGACGAUCUUCUGCUUCUUCAUCAAGUACCAUGGCAACAUCAUCUAAAAUGCUCUGGGGUGAACUAUGAGCCAUAACCUUAGAACAAACAAAAUCAACUAAUGUAGCUUCUUCUUCACCUAUAUAUUCCAACAGAGGAUUGAGCAUCA
B22: chr14:52433459:52433460:+_ENSG00000186469_ENST00000556752|hu_hu|motif|central (ssRNA)
RNA: GGGAGUUCUACAGUCCGACGAUCAAUGGUUCUCCUCGCUCUCUUCAAAUGCCGUGGACUAGAAAGGUGCCCACUUCACGGAAAACUCUACAUCAAUGUCCCAGGAGCCCGGAGGCUCUUCAGGCCCCUCUCAAAGACUUAAAGCAACAGAGGAUUGAGCAUCA

The other results are listed elsewhere or left out.

The assay has as its target T1, UNK ZnF1-3. Kind of assay: nsRBNS (natural sequence RNA bind-n-seq); RBNS binding buffer (assumed for nsRBNS): 25 mM Tris pH 7.5, 150 mM KCl, 3 mM MgCl2, 0.01% Triton X-100, 500 ug/ml BSA, 20 U/ml SUPERase-In, 4 C; UNK is unkempt and MSI1 is Musashi-1; names of the RNAs are library labels; protein concentration not given here; high values mean tight binding.
In the case of B1, the binding signal was found to be 1.26 enrichment R.
Next, B2: 1.44 enrichment R.
Next, B3: 0.778 enrichment R.
With B4 the figure was 1.28 enrichment R.
The molecule B5 displayed a binding signal of 0.635 enrichment R.
B6 showed a binding signal of 0.679 enrichment R.
With B7 the figure was 0.949 enrichment R; with B8, 0.473 enrichment R.
With B9 the figure was 0.75 enrichment R.
Next, B10: 0.763 enrichment R.
Regarding B11, the binding signal amounted to 1.31 enrichment R.
Next, B12: 1.08 enrichment R; B13: 1.02 enrichment R; B14: 0.761 enrichment R.
With B15 the figure was 0.707 enrichment R; with B16, 1.16 enrichment R; with B17, 1.3 enrichment R.
Next, B18: 1.09 enrichment R; B19: 1.44 enrichment R; B20: 0.907 enrichment R.
Regarding B21, the binding signal amounted to 1.39 enrichment R.
Next, B22: 1.22 enrichment R.

Source of the values: publication PMC12136788.
